Here are results for 22 molecules from PMC12136788.

Some of the results follow.

B1: chr5:128448638:128448639:+_ENSG00000066583_ENST00000173527|hu_mus|hu_hu_hu_mus_False|18_58 (ssRNA)
RNA: GGGAGUUCUACAGUCCGACGAUCGGCACUCGCCUUAAUUAGGUUCUGAAUUUCCUUGAACUUCGGGUGGUCUUUGUCAGCUACCAGCUGUAGGAGGACAGCCUCACUAGUGGUCACUAUGAUCCCGGUGCGGGCAAGACGCUCCAACAGAGGAUUGAGCAUCA
B2: chr15:98516890:98516891:+_ENSG00000140450_ENST00000268042|hu_mus|FALSE|FALSE (ssRNA)
RNA: GGGAGUUCUACAGUCCGACGAUCAAUAAAAAUUUUAAAAAGCAAGUGAACUUACCAAAAAAAAAAACACAACCUUUGCCUACUGAGUUUCUUAUUGUGCAAAACAGAGACACAGAAAGUAAAGUUGUGCUCCAGGGGAAGGGACAACAGAGGAUUGAGCAUCA
B3: chr15:27661301:27661302:-_ENSMUSG00000022263_ENSMUST00000090247|mus_hu|motif|central (ssRNA)
RNA: GGGAGUUCUACAGUCCGACGAUCAACCCCAACACACACACAAAACCAUAAAGCUCACCAUACGAAGUAUGUGCUUUUUCGGUAUAUUUAUUACAGGUACAACAGAGGUCUUCAUAAAUAGUUGCAUAAAAUGUUAAAGCCACACAACAGAGGAUUGAGCAUCA
B4: chr3:179287964:179287965:+_ENSG00000136518_ENST00000429709|hu_hu|hu_hu_hu_mus_True|1_88 (ssRNA)
RNA: GGGAGUUCUACAGUCCGACGAUCCUUGAGUGGUGAGAUGGCCUCCAUAUUCUCCCUGGGCACGCGGAGGGCAUUGGUGUCUAUGUAGUAGGUGGGCCCGCCCUGCUUGCCUUUGUCACCAUCAAUCUCCAUCAUUGUGCUUCCCAACAGAGGAUUGAGCAUCA
B5: 42053013_42054352_1604_CDS_ENSG00000196419_ENST00000405878|human|control|control (ssRNA)
RNA: GGGAGUUCUACAGUCCGACGAUCCAGGUCCACUGCUUGUUCCGGCUCCAUCAAAUCCAAGGCCAAGGCCUCCAGGUUCCUGAAGUGCUGCUGCAGCACGGGGUUCUCAAAGCUGUCACUUCUGUAUGUGAAGCGAAGCUUCUCCAACAGAGGAUUGAGCAUCA
B6: chr8:95500983:95500984:-_ENSG00000164944_ENST00000437199|hu_hu|hu_hu_hu_mus_True|78_98 (ssRNA)
RNA: GGGAGUUCUACAGUCCGACGAUCAGAACACAUCUAUUCGUGUAAAGACCGUACAUGGACGACCUCUCCACUGCCUCCACUAACAAACUUUCCUCUCGAGCCUCCACUGCCGCUAUUUGUACUAGCCCAGGACGGUCCCAGGCCCAACAGAGGAUUGAGCAUCA
B7: chr2:202488911:202488912:-_ENSG00000155755_ENST00000286196|hu_mus|hu_hu_hu_mus_False|1_8 (ssRNA)
RNA: GGGAGUUCUACAGUCCGACGAUCAUUGAAACAUUUUUCAUAAUCUCCAGUAGCAUUUCAGCAUUAUGUAACAAAAGCUCAAUUGUAAAUACAUGUAUCUUAUAAAAAUACACUUAAAAACACGAGUAAAAAUGGGACAAAUACCAACAGAGGAUUGAGCAUCA
B8: chr1:66480114:66480115:+_ENSMUSG00000015222_ENSMUST00000024639|mus_hu|mus_mus_mus_hu_True|1_108 (ssRNA)
RNA: GGGAGUUCUACAGUCCGACGAUCUGGCCUGUGACGGAUGUUCUUCAGAGAGCCACAUUUGGAUGUCACAUGGCUUAGGUCUAUUUUCUUGGUAACAAUUUGUACCUGCCCCCCUUUAGGCUGGUAUUUGAUGUUGUCAGUUGACAACAGAGGAUUGAGCAUCA
B9: chr14:66974463:66974464:+_ENSMUSG00000022044_ENSMUST00000074523|mus_hu|mus_mus_mus_hu_False|8_88 (ssRNA)
RNA: GGGAGUUCUACAGUCCGACGAUCUUGUAGGACGACUUAUUCAGGGGAUCAGACAAGAAGCAGGAGCAGAACAAGGACACCAGCGGGAGCUCCUUCAUCUUCUCUUUGUAGGCAGCAAGGGUCAUGUUGGCUGGAAUUGGUGGCCAACAGAGGAUUGAGCAUCA
B10: chr7:63200040:63200041:-_ENSMUSG00000030452_ENSMUST00000032635|mus_mus|FALSE|FALSE (ssRNA)
RNA: GGGAGUUCUACAGUCCGACGAUCCUCAUUUCGUUAGUUACUUAAGUUCCUGUGAGUGACAUUGAUCACCGAACAGAGAAACUGCUUGUACAGGAGACAAGGUGACGCAAUCCUCAAACAUGUAAGUUUAAUAUGGUCUUUCUUCAACAGAGGAUUGAGCAUCA
B11: chr10:1038518:1038519:+_ENSG00000107937_ENST00000545048|hu_hu|hu_hu_hu_mus_False|28_68 (ssRNA)
RNA: GGGAGUUCUACAGUCCGACGAUCCAGUCUGUCAUGGUAAUUCUGUUGAGUAAAUUUGACUUUUCUCAUGUAAAAAUGUCGAAUCCGAUGAAUUUGAUAAUGUUUAUGAAUAACGGUUGGAGUCUUUCGUUGAGUCUUGGAUAACAACAGAGGAUUGAGCAUCA
B12: chr11:50195847:50195848:+_ENSMUSG00000007850_ENSMUST00000123371|mus_mus|motif|central (ssRNA)
RNA: GGGAGUUCUACAGUCCGACGAUCCCAGAUUUCUUACAUUUAUUUGUAUAGGCAAUGACCAGAAAAUUCACUCAAAAGACGGUUUAAACUUUAUAGAAAAAAAGAAAAUAAACUCCUCUGAGGCAGAGCCCAGCCUUAGAGGCACAACAGAGGAUUGAGCAUCA
B13: chr3:87342203:87342204:+_ENSMUSG00000003382_ENSMUST00000170036|mus_mus|motif|central (ssRNA)
RNA: GGGAGUUCUACAGUCCGACGAUCCCGAGUGCCAUCCCUUGCCUCAGCAGAUAGGAAACCAUUUCUUCUUGCUGCUCUGAGCGGCGGGAGCACACACGUGCACAGAGGCCGUUGGCUGGUGCCGCUUUCUCUCUACCCUAGUGCCAACAGAGGAUUGAGCAUCA
B14: chr18:86887116:86887117:+_ENSMUSG00000024647_ENSMUST00000068423|mus_hu|FALSE|FALSE (ssRNA)
RNA: GGGAGUUCUACAGUCCGACGAUCUACAGCUUCCAUUACCAACUUAUAUGAUUCAGGACCACUCAGGAACACCAGGUUCUUAAAGGAUUCUGAAGUAUAAAUUAAAAAAAAAUGCAGGUUGCUAUUAAUAGUUCUAAAGGUGCACAACAGAGGAUUGAGCAUCA
B15: chr17:64801638:64801639:+_ENSG00000154229_ENST00000413366|hu_mus|hu_hu_hu_mus_False|58_88 (ssRNA)
RNA: GGGAGUUCUACAGUCCGACGAUCUAUAUAUAUAUAUACAUAUGUACACAUAUGUAGUAAAACCCUAGUUAAACGUGUAAACUAGCCAUUCAUUUUUAAAAUUACAUCUACAUUAAAAAAUUAAUAUAUCUGAUAGAGUGCCAGCAACAGAGGAUUGAGCAUCA
B16: 62645084_62645204_982_CDS_ENSMUSG00000032244_ENSMUST00000034775|mouse|control|control (ssRNA)
RNA: GGGAGUUCUACAGUCCGACGAUCAUCAGCUUUACAGCUUUCAGCGGCCACCUUCAAUGGUGUCAUCCCAUGGCCAUUCACCACUAUUGCAGCUCUCCAUUUUAUCAGUUCUUUCACAAUGUCAAUGUGACCAGCUUCGGCUGCCAACAGAGGAUUGAGCAUCA
B17: 17148479_17148599_2661_3pUTR_ENSMUSG00000058230_ENSMUST00000075845|mouse|control|control (ssRNA)
RNA: GGGAGUUCUACAGUCCGACGAUCACUCCUUUGAAUUGUAAAGGCAGAGACAGCCAUGGGGUUGGAAGGUUGGUGUCUGGAAAGAGUUCACAGGAAGCCGGACAUUCCCCUCUAUUGGCCUCAGAGAAAGCUCAUACAUUUUACCAACAGAGGAUUGAGCAUCA
B18: 19491381_19491752_4390_CDS_ENSG00000127481_ENST00000375254|human|control|control (ssRNA)
RNA: GGGAGUUCUACAGUCCGACGAUCCGAUGUAGUCAUGCGGGUGAGCCAGGCCUGCAGGCGCACAGGUUCCACACAGGCCAGUUGUGCCAGGGAGCCACAGAGAUGCAACAGGCUCGGGUUAGGGCUCUUCUCAGUCAGCUGGAACAACAGAGGAUUGAGCAUCA
B19: chr22:26877738:26877739:-_ENSG00000100099_ENST00000336873|hu_mus|FALSE|FALSE (ssRNA)
RNA: GGGAGUUCUACAGUCCGACGAUCUCCACCACGCUGCUGACUUUGUCUCUGGGGGAGUGGUGGUGGCCAUUUACUCUCCAGAUGGCUUCAUCCUCUUCAUCUGGUGUUCUUCCUAGAAGCAGUUCUCUGUCCCCCAACUGGUGUCAACAGAGGAUUGAGCAUCA
B20: chr7:123332509:123332510:-_ENSG00000106299_ENST00000223023|hu_mus|FALSE|FALSE (ssRNA)
RNA: GGGAGUUCUACAGUCCGACGAUCUGAGCAGGACACGGGCCGGCUAUUCUGUUCCACUUUUUUCAGCUGAGCACCCUCUCUAAUUUGAUCCAAAAGAGCUGCUUUGUUUCCUGAAGGAGCUGGAACUUGAUGGUCACCAUCAGACAACAGAGGAUUGAGCAUCA
B21: chrX:71549762:71549763:+_ENSMUSG00000019087_ENSMUST00000019231|mus_mus|mus_mus_mus_hu_False|8_68 (ssRNA)
RNA: GGGAGUUCUACAGUCCGACGAUCAAACCCGUGUACUUCUUAUUGUUAGCACAACAUCACCAGAAAAAAAACAUAACAGCCAAGCAGGACAGACAGUUAAGUAGUACUUCCACACUCCCAAACUCAGAGGAACCUCAAACCUUACAACAGAGGAUUGAGCAUCA
B22: chr2:242276830:242276831:+_ENSG00000168385_ENST00000391971|hu_hu|FALSE|FALSE (ssRNA)
RNA: GGGAGUUCUACAGUCCGACGAUCUAAGGGCUUAAGUCCAUGUCCAAAAGGUGAAAUAAAGUAAAAGCAACAAUGCACCCUAUUAUCAAUGAUGUGCCGCCUGUUCAAGCCGCUCUCGUCAUGCAGGUACCUCUCAAAUUGCUCCAACAGAGGAUUGAGCAUCA

The assay concerns the target T1, UNK ZnF1-3 (human, UniProt Q9C0B0 31-174).
T1 sequence: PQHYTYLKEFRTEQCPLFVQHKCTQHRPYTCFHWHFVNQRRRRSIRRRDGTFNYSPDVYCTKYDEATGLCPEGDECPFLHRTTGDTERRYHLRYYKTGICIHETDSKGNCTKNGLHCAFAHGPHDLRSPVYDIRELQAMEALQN
In words: nsRBNS (natural sequence RNA bind-n-seq); RBNS binding buffer (assumed for nsRBNS): 25 mM Tris pH 7.5, 150 mM KCl, 3 mM MgCl2, 0.01% Triton X-100, 500 ug/ml BSA, 20 U/ml SUPERase-In, 4 C; UNK is unkempt and MSI1 is Musashi-1; names of the RNAs are library labels; protein concentration not given here; high values mean tight binding.
Regarding B1, the binding signal stood at 0.681 enrichment R. In turn, B2 gave a binding signal of 0.775 enrichment R. Turning to B3, the binding signal worked out at 1.53 enrichment R. For B4 the value was 0.73 enrichment R. B5: the binding signal was 0.908 enrichment R. Then B6, with 1.27 enrichment R; and B7, with 0.88 enrichment R. For B8 the value was 0.39 enrichment R; for B9, 1.98 enrichment R. Then B10, with 1.26 enrichment R. B11 had a binding signal of 0.681 enrichment R. The molecule B12 showed a binding signal of 2.58 enrichment R. B13: the binding signal was found to be 0.74 enrichment R. In the case of B14, the binding signal was found to be 1.09 enrichment R. Then B15, with 1.7 enrichment R; and B16, with 0.663 enrichment R; and B17, with 1.43 enrichment R.

In the case of B18, the binding signal came to 1.16 enrichment R.

As to B19, the binding signal worked out at 0.69 enrichment R. In turn, B20 yielded a binding signal of 1.22 enrichment R. Then B21, with 2.36 enrichment R; and B22, with 1 enrichment R.
